Experimental data taken from the supplement of paper PMC3334620.
Whole data set: some 33,000 sequences, median “E-score (-0.5 to 0.5)” near -0.053, cut for the highest 2% near 0.37. This is one part of the list.

Target: Hap1 (UniProt P0CE41)
Experiment: PBM E-score (8-mer binding enrichment) (E-score (-0.5 to 0.5)); higher = stronger / more preferred TF binding; most listed sequences are background and not binding sites
Conditions: protein concentration: 200 nM; construct: GST-DNA-binding domain
Experimental: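 Universal 'all 10-mer' protein binding microarrays (Agilent AMADID 015681) probed with GST-tagged S. cerevisiae TFs (full-length or DBD) made by in vitro transcription/translation (PURExpress), about 100-200 nM. Bound TF was detected with fluorescent anti-GST. Each ungapped 8-mer (which stands for itself and its reverse complement) is scored by the PBM enrichment score (E-score), a modified Wilcoxon-Mann-Whitney statistic from -0.5 to +0.5, computed with the Universal PBM Analysis Suite. Scale: above 0.35 generally sequence-specific binding.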

Chain of UniProt P0CE41 (P0CE41 whole entry): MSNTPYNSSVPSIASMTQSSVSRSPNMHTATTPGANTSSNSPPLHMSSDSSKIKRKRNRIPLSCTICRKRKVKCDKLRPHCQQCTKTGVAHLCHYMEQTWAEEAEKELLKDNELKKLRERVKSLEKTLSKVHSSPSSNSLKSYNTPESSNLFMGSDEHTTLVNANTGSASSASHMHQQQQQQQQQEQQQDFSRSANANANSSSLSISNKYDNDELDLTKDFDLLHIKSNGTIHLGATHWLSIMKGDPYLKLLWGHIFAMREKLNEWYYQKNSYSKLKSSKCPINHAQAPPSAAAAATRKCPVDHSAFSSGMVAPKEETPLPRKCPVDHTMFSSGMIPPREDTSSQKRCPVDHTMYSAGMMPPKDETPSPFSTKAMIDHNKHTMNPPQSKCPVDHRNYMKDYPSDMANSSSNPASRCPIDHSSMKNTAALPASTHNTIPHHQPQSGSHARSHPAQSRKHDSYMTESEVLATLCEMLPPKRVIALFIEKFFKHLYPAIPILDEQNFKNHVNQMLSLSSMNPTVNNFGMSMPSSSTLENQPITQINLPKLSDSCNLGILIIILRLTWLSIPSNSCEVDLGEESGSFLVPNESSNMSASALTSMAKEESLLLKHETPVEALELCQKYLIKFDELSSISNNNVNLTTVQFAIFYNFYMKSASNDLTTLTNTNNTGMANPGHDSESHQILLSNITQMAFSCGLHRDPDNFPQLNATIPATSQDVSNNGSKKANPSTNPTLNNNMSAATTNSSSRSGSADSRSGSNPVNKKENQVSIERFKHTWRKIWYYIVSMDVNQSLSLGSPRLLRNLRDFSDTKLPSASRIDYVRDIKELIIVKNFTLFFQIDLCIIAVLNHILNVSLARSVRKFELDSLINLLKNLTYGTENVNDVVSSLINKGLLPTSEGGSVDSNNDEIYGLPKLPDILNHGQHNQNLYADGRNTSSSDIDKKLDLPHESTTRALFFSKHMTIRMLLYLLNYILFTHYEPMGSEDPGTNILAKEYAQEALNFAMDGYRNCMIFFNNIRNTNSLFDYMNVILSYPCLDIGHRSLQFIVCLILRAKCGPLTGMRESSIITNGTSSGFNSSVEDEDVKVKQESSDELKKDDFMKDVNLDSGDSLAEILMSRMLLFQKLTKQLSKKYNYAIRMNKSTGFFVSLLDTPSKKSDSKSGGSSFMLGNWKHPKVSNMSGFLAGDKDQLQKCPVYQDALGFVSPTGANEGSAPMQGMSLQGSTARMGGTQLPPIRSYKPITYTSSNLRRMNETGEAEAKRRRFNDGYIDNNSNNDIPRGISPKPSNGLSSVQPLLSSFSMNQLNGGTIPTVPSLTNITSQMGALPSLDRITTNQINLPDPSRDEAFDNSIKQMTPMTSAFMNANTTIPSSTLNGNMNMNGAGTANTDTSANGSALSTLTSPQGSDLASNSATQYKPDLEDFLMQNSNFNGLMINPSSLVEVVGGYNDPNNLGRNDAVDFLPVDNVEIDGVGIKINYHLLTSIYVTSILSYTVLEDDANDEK

Sequence | PBM E-score
CTGAACTC | -0.207
TCCTCCAA | -0.155
ATGACTGC | -0.102
GAGTGTGC | 0.0713
GCCCACGA | -0.183
CAGGAAGC | -0.0892
GCGTGCAA | -0.19
AAAACCGG | 0.359
AGTGCCAC | -0.286
AAGCTGGG | -0.131
AGATGTCC | 0.156
GAGTAAAA | 0.0258
ACTAAATG | -0.164
GCTGGACA | -0.189
AAAAAACC | -0.0177
AGAGCCAA | -0.12
TGGGACCA | -0.19
CTAAGACC | 0.132
CTCCATAA | -0.15
AAGTGCCG | 0.167
CGCTGAAA | -0.00205
AGCTATAT | -0.11
GCCTCCTA | -0.165
TCAATTCA | -0.129
GGGCGAGA | 0.0917

Sequence | PBM E-score
CCCTTCCC | -0.0794
CTCTTCGA | 0.00021
CCGCGAGG | 0.272
AGTCTCCC | -0.0501
AGCGGACG | 0.297
GGCAGGAA | -0.15
GTACGGTA | 0.0448
ACCAAGAC | -0.0755
ATCCGAAA | 0.389
TAGCCTAA | -0.158
GTAGGGAC | -0.0187
ACTGGTGC | 0.0548
GAGGCGGC | 0.0321
CATATGAG | -0.0541
CCTATACG | -0.214
TAGTTCAA | -0.0733
AGTGGTCG | -0.0002
GGAGTCCC | -0.0836
AACTCACG | -0.188
TAGTGAGA | -0.197
CGGCGGTA | 0.428
GGGAAGGA | -0.139
GTTATAGA | -0.289
AAAAAATG | 0.00324
CCAACGGC | -0.0598

Sequence | PBM E-score
ATCTAACA | -0.22
ATGGAGCG | -0.0881
CCCGGTGC | 0.323
CCCTATAC | -0.184
ATTGGCGG | -0.0708
ACCCCAAG | -0.0426
ATCGGACA | 0.394
CGGAAGCA | 0.315
CGGATTAG | 0.305
TCCGCAAA | 0.327
GCGGCTGA | -0.125
AACGTCCA | -0.0731
AAGATCTA | -0.12
GACCTTAC | 0.196
CGTGAATA | -0.00945
ATCTGGCG | 0.0049
ACTCGTAA | -0.0238
CCTGTTAG | -0.152
GAGGCGGA | 0.239
CCAACAGC | -0.0833
AAGTACCC | -0.0579
CATATATC | 0.176
ATCTCTGG | -0.275
CGCTGGTC | -0.127
AGGTGTAA | -0.0467

Sequence | PBM E-score
TGGTGACA | -0.219
CCAGACAG | -0.128
ATCGCGAT | 0.17
ACTCCCCT | 0.0602
CGCCACAA | -0.105
CAAAGTGC | -0.13
GATCCTAC | -0.0541
GGGGCCGA | 0.233
TAGATCCA | -0.0506
CTGTGGCA | -0.287
AAGGTACT | -0.129
ACTATCAC | -0.111
ACGGGGGC | 0.0386
CGTGATTC | 0.0437
TCGCCACA | -0.0472
CATAGTAA | -0.0921
CCTTTGAA | -0.205
CCACTTTC | -0.11
AATCACCA | 0.137
ACAGGCCC | -0.237
AACTAAAT | -0.168
GTAACGAC | -0.0123
CATTCTTC | 0.0268
TACCAAAA | -0.121
CACTAGCA | -0.325

Sequence | PBM E-score
AGATACGA | -0.0531
ATGGGCTG | -0.189
TCGGCCAA | 0.256
CGAATGGC | 0.133
CAGGGACG | -0.189
CAGCCCAA | -0.112
CCCACTGC | -0.0617
GGCCACGA | 0.0965
CGAACCGA | 0.293
AGTGGCGG | -0.0718
TAGCTCCA | -0.0585
TCGTGCCA | -0.155
AATTAGCC | 0.0175
AGATTATG | 0.144
AGCGTGGG | -0.212
ACATCATA | -0.0643
CCATCCCC | 0.0741
CACATGCG | 0.152
CTCTTAGA | -0.185
TCGTCACA | -0.139
AGAAAAAC | -0.0202
CCGGTCCC | 0.323
ATTACGAG | -0.0195
GTGAGCCA | -0.339
ATAAATAA | 0.0473

Sequence | PBM E-score
CAATGGAA | 0.145
CCTCTTCA | -0.201
ATAAGTAA | 0.0425
CGGGATCC | 0.28
CCGTGAAA | 0.2
CTTTACTA | 0.0869
AACTTGCA | -0.173
GCCCCTGA | -0.186
ACGGTTTG | 0.0895
GCCTGATA | -0.176
AAAGGAAG | 0.0515
CTCGCGAA | 0.0108
GTACCTCA | -0.238
CTAGGCAC | -0.243
TACGATAA | 0.0399
CAAATTTC | -0.0418
AACTCGCT | 0.131
GACCACTC | 0.0772
AGCTCGCA | 0.00172
ACATACCG | 0.163
AGCATCAT | -0.156
TCGCCCGA | 0.362
CGGATAGC | 0.128
CCGTCAAA | 0.114
GATTTGAA | -0.078

Sequence | PBM E-score
ACAGTCTG | -0.192
GAGAGCCC | -0.16
GAGCCAGA | -0.0724
CTGACTGC | -0.22
GTGGAGGA | -0.125
GACACGCC | 0.0727
CTCAGTCA | -0.299
AGCTGGTA | -0.165
GGAAATTA | 0.292
TACTCAGA | -0.149
ATTAGAGC | 0.136
ACATCGAT | -0.089
ACTAAGGA | -0.162
TCAGCAAA | -0.157
ATTTCCTA | 0.0502
AAGTTTCT | -0.182
ATCCGTCA | 0.212
ACGGGCGG | 0.171
CGCGACCG | 0.176
GAGAGCGC | 0.0882
CAAGCCGG | 0.292
TCGACTCA | -0.169
ACGCCTAT | -0.0567
AAGCTTTC | -0.0343
CAGCTTGC | -0.0611

Sequence | PBM E-score
GCGAACGC | 0.0232
TAAGTTCA | -0.139
CACTGTTC | -0.16
CTAGCAGC | -0.188
GCATCGTA | -0.0705
AGTTCGGG | 0.326
GCAGTCTA | -0.25
ATCTGCAG | -0.0634
GCAGCTAA | 0.0163
GAAATTAC | 0.178
CGCAGTAA | 0.00425
AAAAGTAC | -0.111
GGTTAGTA | -0.00243
ATGTTACA | -0.169
CCAGATTA | -0.0959
ACTAGTTC | -0.0373
ACCCCTTG | -0.357
ATATACAG | -0.0679
CAGAGCCA | -0.318
ATCCTTAC | -0.172
ATAGATGA | -0.135
CGGGCAAA | 0.249
AGGCTTTA | -0.116
ACACGGAA | 0.179
CAATATGG | -0.177

Sequence | PBM E-score
AACCTACG | -0.167
GTTTTGGA | -0.054
CTCGACAA | -0.236
ACCCGTGG | -0.0105
ATCGATAA | 0.102
GTTGTTAA | 0.0298
CTTAGCAC | 0.111
GCTATAAA | -0.0266
ACGTACCG | 0.129
CGTTCGTA | 0.0644
GAATGATC | 0.00129
AGGTACCT | -0.144
CCTGAATC | -0.134
TATGGAGA | -0.00213
GCTAAGAA | 0.0725
ACCATACA | -0.0945
CGTAAGAG | -0.0129
AGCATCGG | 0.278
GGTTTCCA | -0.221
